# Source: the supplement of paper PMC12423691
# This is one part of the list. Binding of human transcription factors and regulators to the viral nucleoprotein by AlphaScreen, crude cell-free proteins, amounts not normalised, one pass. Fold of the Venus control; higher = more signal. No active / inactive call. Single-pass screen; sequences are the whole Swiss-Prot entries looked up by name.
# B1: REL, Q04864 (protein)
# chain: MASGAYNPYIEIIEQPRQRGMRFRYKCEGRSAGSIPGEHSTDNNRTYPSIQIMNYYGKGKVRITLVTKNDPYKPHPHDLVGKDCRDGYYEAEFGQERRPLFFQNLGIRCVKKKEVKEAIITRIKAGINPFNVPEKQLNDIEDCDLNVVRLCFQVFLPDEHGNLTTALPPVVSNPIYDNRAPNTAELRICRVNKNCGSVRGGDEIFLLCDKVQKDDIEVRFVLNDWEAKGIFSQADVHRQVAIVFKTPPYCKAITEPVTVKMQLRRPSDQEVSESMDFRYLPDEKDTYGNKAKKQKTTLLFQKLCQDHVETGFRHVDQDGLELLTSGDPPTLASQSAGITVNFPERPRPGLLGSIGEGRYFKKEPNLFSHDAVVREMPTGVSSQAESYYPSPGPISSGLSHHASMAPLPSSSWSSVAHPTPRSGNTNPLSSFSTRTLPSNSQGIPPFLRIPVGNDLNASNACIYNNADDIVGMEASSMPSADLYGISDPNMLSNCSVNMMTTSSDSMGETDNPRLLSMNLENPSCNSVLDPRDLRQLHQMSSSSMSAGANSNTTVFVSQSDAFEGSDFSCADNSMINESGPSNSTNPNSHGFVQDSQYSGIGSMQNEQLSDSFPYEFFQV
# B2: NEUROG2, Q9H2A3 (protein)
# chain: MFVKSETLELKEEEDVLVLLGSASPALAALTPLSSSADEEEEEEPGASGGARRQRGAEAGQGARGGVAAGAEGCRPARLLGLVHDCKRRPSRARAVSRGAKTAETVQRIKKTRRLKANNRERNRMHNLNAALDALREVLPTFPEDAKLTKIETLRFAHNYIWALTETLRLADHCGGGGGGLPGALFSEAVLLSPGGASAALSSSGDSPSPASTWSCTNSPAPSSSVSSNSTSPYSCTLSPASPAGSDMDYWQPPPPDKHRYAPHLPIARDCI
# B3: ESRRB, O95718 (protein)
# chain: MSSDDRHLGSSCGSFIKTEPSSPSSGIDALSHHSPSGSSDASGGFGLALGTHANGLDSPPMFAGAGLGGTPCRKSYEDCASGIMEDSAIKCEYMLNAIPKRLCLVCGDIASGYHYGVASCEACKAFFKRTIQGNIEYSCPATNECEITKRRRKSCQACRFMKCLKVGMLKEGVRLDRVRGGRQKYKRRLDSESSPYLSLQISPPAKKPLTKIVSYLLVAEPDKLYAMPPPGMPEGDIKALTTLCDLADRELVVIIGWAKHIPGFSSLSLGDQMSLLQSAWMEILILGIVYRSLPYDDKLVYAEDYIMDEEHSRLAGLLELYRAILQLVRRYKKLKVEKEEFVTLKALALANSDSMYIEDLEAVQKLQDLLHEALQDYELSQRHEEPWRTGKLLLTLPLLRQTAAKAVQHFYSVKLQGKVPMHKLFLEMLEAKV
# B4: TRIM26, Q12899 (protein)
# chain: MATSAPLRSLEEEVTCSICLDYLRDPVTIDCGHVFCRSCTTDVRPISGSRPVCPLCKKPFKKENIRPVWQLASLVENIERLKVDKGRQPGEVTREQQDAKLCERHREKLHYYCEDDGKLLCVMCRESREHRPHTAVLMEKAAQPHREKILNHLSTLRRDRDKIQGFQAKGEADILAALKKLQDQRQYIVAEFEQGHQFLREREEHLLEQLAKLEQELTEGREKFKSRGVGELARLALVISELEGKAQQPAAELMQDTRDFLNRYPRKKFWVGKPIARVVKKKTGEFSDKLLSLQRGLREFQGKLLRDLEYKTVSVTLDPQSASGYLQLSEDWKCVTYTSLYKSAYLHPQQFDCEPGVLGSKGFTWGKVYWEVEVEREGWSEDEEEGDEEEEGEEEEEEEEAGYGDGYDDWETDEDEESLGDEEEEEEEEEEEVLESCMVGVARDSVKRKGDLSLRPEDGVWALRLSSSGIWANTSPEAELFPALRPRRVGIALDYEGGTVTFTNAESQELIYTFTATFTRRLVPFLWLKWPGTRLLLRP
# B5: FERD3L, Q96RJ6 (protein)
# chain: MAAYPESCVDTTVLDFVADLSLASPRRPLLCDFAPGVSLGDPALALREGRPRRMARFEEGDPEEEECEVDQGDGEEEEEEERGRGVSLLGRPKRKRVITYAQRQAANIRERKRMFNLNEAFDQLRRKVPTFAYEKRLSRIETLRLAIVYISFMTELLESCEKKESG
# B6: BCL6B, Q8N143 (protein)
# chain: MGSPAAPEGALGYVREFTRHSSDVLGNLNELRLRGILTDVTLLVGGQPLRAHKAVLIACSGFFYSIFRGRAGVGVDVLSLPGGPEARGFAPLLDFMYTSRLRLSPATAPAVLAAATYLQMEHVVQACHRFIQASYEPLGISLRPLEAEPPTPPTAPPPGSPRRSEGHPDPPTESRSCSQGPPSPASPDPKACNWKKYKYIVLNSQASQAGSLVGERSSGQPCPQARLPSGDEASSSSSSSSSSSEEGPIPGPQSRLSPTAATVQFKCGAPASTPYLLTSQAQDTSGSPSERARPLPGSEFFSCQNCEAVAGCSSGLDSLVPGDEDKPYKCQLCRSSFRYKGNLASHRTVHTGEKPYHCSICGARFNRPANLKTHSRIHSGEKPYKCETCGSRFVQVAHLRAHVLIHTGEKPYPCPTCGTRFRHLQTLKSHVRIHTGEKPYHCDPCGLHFRHKSQLRLHLRQKHGAATNTKVHYHILGGP
# B7: POU4F3, Q15319 (protein)
# chain: MMAMNSKQPFGMHPVLQEPKFSSLHSGSEAMRRVCLPAPQLQGNIFGSFDESLLARAEALAAVDIVSHGKNHPFKPDATYHTMSSVPCTSTSSTVPISHPAALTSHPHHAVHQGLEGDLLEHISPTLSVSGLGAPEHSVMPAQIHPHHLGAMGHLHQAMGMSHPHTVAPHSAMPACLSDVESDPRELEAFAERFKQRRIKLGVTQADVGAALANLKIPGVGSLSQSTICRFESLTLSHNNMIALKPVLQAWLEEAEAAYREKNSKPELFNGSERKRKRTSIAAPEKRSLEAYFAIQPRPSSEKIAAIAEKLDLKKNVVRVWFCNQRQKQKRMKYSAVH
# B8: MYCL, P12524 (protein)
# chain: MDYDSYQHYFYDYDCGEDFYRSTAPSEDIWKKFELVPSPPTSPPWGLGPGAGDPAPGIGPPEPWPGGCTGDEAESRGHSKGWGRNYASIIRRDCMWSGFSARERLERAVSDRLAPGAPRGNPPKASAAPDCTPSLEAGNPAPAAPCPLGEPKTQACSGSESPSDSENEEIDVVTVEKRQSLGIRKPVTITVRADPLDPCMKHFHISIHQQQHNYAARFPPESCSQEEASERGPQEEVLERDAAGEKEDEEDEEIVSPPPVESEAAQSCHPKPVSSDTEDVTKRKNHNFLERKRRNDLRSRFLALRDQVPTLASCSKAPKVVILSKALEYLQALVGAEKRMATEKRQLRCRQQQLQKRIAYLTGY
# B9: ZNF260, Q3ZCT1 (protein)
# chain: MIGMLESLQHESDLLQHDQIHTGEKPYECNECRKTFSLKQNLVEHKKMHTGEKSHECTECGKVCSRVSSLTLHLRSHTGKKAYKCNKCGKAFSQKENFLSHQKHHTGEKPYECEKVSIQMPTIIRHQKNHTGTKPYACKECGKAFNGKAYLTEHEKIHTGEKPFECNQCGRAFSQKQYLIKHQNIHTGKKPFKCSECGKAFSQKENLIIHQRIHTGEKPYECKGCGKAFIQKSSLIRHQRSHTGEKPYTCKECGKAFSGKSNLTEHEKIHIGEKPYKCNECGTIFRQKQYLIKHHNIHTGEKPYECNKCGKAFSRITSLIVHVRIHTGDKPYECKVCGKAFCQSSSLTVHMRSHTGEKPYGCNECGKAFSQFSTLALHMRIHTGEKPYQCSECGKAFSQKSHHIRHQRIHTH
# B10: TCF4, P15884 (protein)
# chain: MHHQQRMAALGTDKELSDLLDFSAMFSPPVSSGKNGPTSLASGHFTGSNVEDRSSSGSWGNGGHPSPSRNYGDGTPYDHMTSRDLGSHDNLSPPFVNSRIQSKTERGSYSSYGRESNLQGCHQQSLLGGDMDMGNPGTLSPTKPGSQYYQYSSNNPRRRPLHSSAMEVQTKKVRKVPPGLPSSVYAPSASTADYNRDSPGYPSSKPATSTFPSSFFMQDGHHSSDPWSSSSGMNQPGYAGMLGNSSHIPQSSSYCSLHPHERLSYPSHSSADINSSLPPMSTFHRSGTNHYSTSSCTPPANGTDSIMANRGSGAAGSSQTGDALGKALASIYSPDHTNNSFSSNPSTPVGSPPSLSAGTAVWSRNGGQASSSPNYEGPLHSLQSRIEDRLERLDDAIHVLRNHAVGPSTAMPGGHGDMHGIIGPSHNGAMGGLGSGYGTGLLSANRHSLMVGTHREDGVALRGSHSLLPNQVPVPQLPVQSATSPDLNPPQDPYRGMPPGLQGQSVSSGSSEIKSDDEGDENLQDTKSSEDKKLDDDKKDIKSITSNNDDEDLTPEQKAEREKERRMANNARERLRVRDINEAFKELGRMVQLHLKSDKPQTKLLILHQAVAVILSLEQQVRERNLNPKAACLKRREEEKVSSEPPPLSLAGPHPGMGDASNHMGQM
# B11: ZNF131, P52739 (protein)
# chain: MEAEETMECLQEFPEHHKMILDRLNEQREQDRFTDITLIVDGHHFKAHKAVLAACSKFFYKFFQEFTQEPLVEIEGVSKMAFRHLIEFTYTAKLMIQGEEEANDVWKAAEFLQMLEAIKALEVRNKENSAPLEENTTGKNEAKKRKIAETSNVITESLPSAESEPVEIEVEIAEGTIEVEDEGIETLEEVASAKQSVKYIQSTGSSDDSALALLADITSKYRQGDRKGQIKEDGCPSDPTSKQVEGIEIVELQLSHVKDLFHCEKCNRSFKLFYHFKEHMKSHSTESFKCEICNKRYLRESAWKQHLNCYHLEEGGVSKKQRTGKKIHVCQYCEKQFDHFGHFKEHLRKHTGEKPFECPNCHERFARNSTLKCHLTACQTGVGAKKGRKKLYECQVCNSVFNSWDQFKDHLVIHTGDKPNHCTLCDLWFMQGNELRRHLSDAHNISERLVTEEVLSVETRVQTEPVTSMTIIEQVGKVHVLPLLQVQVDSAQVTVEQVHPDLLQDSQVHDSHMSELPEQVQVSYLEVGRIQTEEGTEVHVEELHVERVNQMPVEVQTELLEADLDHVTPEIMNQEERESSQADAAEAAREDHEDAEDLETKPTVDSEAEKAENEDRTALPVLE
# Biological target: nucleoprotein N of Crimean-Congo hemorrhagic fever virus
# Assay: AlphaScreen luminescence signal relative to Venus negative control (fold); higher = stronger binding to CCHFV N
# Protocol: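 AlphaScreen binding of cell-free made, FLAG-GST-tagged human transcription factors and regulators (crude translation products) to biotinylated N protein; signal as fold of the FLAG-GST-Venus control. One pass.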
row,Binder,AlphaScreen luminescence signal
1,B1,2.98
2,B2,3.21
3,B3,1.44
4,B4,2.51
5,B5,1.53
6,B6,2
7,B7,1.81
8,B8,2.42
9,B9,2.56
10,B10,2
11,B11,1.86
